Results taken from the supplement of paper PMC11125491.
± gives the standard deviation of the averaged measurements. Growth of baker's yeast expressing single-residue variants of Pneumocystis jirovecii dihydrofolate reductase in 8.8 or 44 µM methotrexate (about 75% and 90% inhibition of the wild type). Selection coefficient per generation; 0 = like wild type, above 0 = less sensitive, below 0 = more sensitive or loss of function. No active / inactive call per row; the paper calls resistant above 0.220 (8.8 µM) or 0.243 (44 µM) together with a significance test. At 44 µM about 15% of codons end with one read or none, so the lowest values are floors (replicate rank correlation 0.74; 0.94 at 8.8 µM).

B1: UniProt A0EPZ9; numbered along this chain (parent)
chain: MDWQKSLTLIVALTLSRGIGLKNDLPWKLKSDMMFFSRVTSGLLVTRSTGQMNVVLMGRKTWESLPAHSRPLKNRINVVISRQEVLDLGGGAYHARSLDDALALLSQIYDSTSKIQLNRVFVIGGGELCKAAMEHSRLNRIIATVIHNEVDCDVFFPIDFRSSQSCLPWRKQDHSVLEAWVGSKVPQGKINENGFIYEFEMWIRDI

Variants of: B1
Assay: selection coefficient against synonymous wild-type codons (log2 per generation); higher = faster growth than wild type
Conditions: with Saccharomyces cerevisiae carrying the variant on a plasmid
Experimental: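 Pooled growth of yeast carrying single-residue variants of P. jirovecii dihydrofolate reductase (own DFR1 gene intact), two passages at 30 °C, three cultures, sequenced before and after. Codons with under 15 starting reads are left out; codons of one change are averaged.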

MDWQKSLTLIVALTLSRGIGLKNDLPWKLKSDMMFFSRVTSGLLVTRSTGQMNVVLMGRKTWESLPAHSRPLKNRINVVISRQEVLDLGGGAYHARSLDDALALLSQIYDSTSKIQLNRVFVIGGGELCKAAMEHSRLNRIIATVIHNEVDCDVFFPIDFRSSQSCLPWRKQDHSVLEAWVGSKVPQGKINENGFIYEFEMWIRYI [D205Y] was tested, and the “selection coefficient against synonymous wild-type codons (log2)” value (shortened to “selection coefficient … (log2)”) (methotrexate 8.8 µM) was -0.467 ± 0.043 and the “selection coefficient … (log2)” value (methotrexate 44 µM) was -0.479 ± 0.08.

MDWQKSLTLIVALTLSRGIGLKNDLPWKLKSDMMFFSRVTSGLLVTRSTGQMNVVLMGRKTWESLPAHSRPLKNRINVVISRQEVLDLGGGAYHARSLDDALALLSQIYDSTSKIQLNRVFVIGGGELCKAAMEHSRLNRIIATVIHNEVDCDVFFPIDFRSSQSCLPWRKQDHSVLEAWVGSKVPQGKINENGFIYEFEMWIRTI [D205T] was tested, and the “selection coefficient … (log2)” value (methotrexate 8.8 µM) was -0.243 ± 0.12 and the “selection coefficient … (log2)” value (methotrexate 44 µM) was -0.165 ± 0.14.

MDWQKSLTLIVALTLSRGIGLKNDLPWKLKSDMMFFSRVTSGLLVTRSTGQMNVVLMGRKTWESLPAHSRPLKNRINVVISRQEVLDLGGGAYHARSLDDALALLSQIYDSTSKIQLNRVFVIGGGELCKAAMEHSRLNRIIATVIHNEVDCDVFFPIDFRSSQSCLPWRKQDHSVLEAWVGSKVPQGKINENGFIYEFEMWIRWI [D205W] was tested, and the “selection coefficient … (log2)” value (methotrexate 8.8 µM) was -0.585 ± 0.11 and the “selection coefficient … (log2)” value (methotrexate 44 µM) was -0.463 ± 0.11.

For MDWQKSLTLIVALTLSRGIGLKNDLPWKLKSDMMFFSRVTSGLLVTRSTGQMNVVLMGRKTWESLPAHSRPLKNRINVVISRQEVLDLGGGAYHARSLDDALALLSQIYDSTSKIQLNRVFVIGGGELCKAAMEHSRLNRIIATVIHNEVDCDVFFPIDFRSSQSCLPWRKQDHSVLEAWVGSKVPQGKINENGFIYEFEMWIRVI [D205V], the “selection coefficient … (log2)” value (methotrexate 8.8 µM) was -0.231 ± 0.17 and the “selection coefficient … (log2)” value (methotrexate 44 µM) was -0.0988 ± 0.25.

For MDWQKSLTLIVALTLSRGIGLKNDLPWKLKSDMMFFSRVTSGLLVTRSTGQMNVVLMGRKTWESLPAHSRPLKNRINVVISRQEVLDLGGGAYHARSLDDALALLSQIYDSTSKIQLNRVFVIGGGELCKAAMEHSRLNRIIATVIHNEVDCDVFFPIDFRSSQSCLPWRKQDHSVLEAWVGSKVPQGKINENGFIYEFEMWIRSI [D205S], the “selection coefficient … (log2)” value (methotrexate 8.8 µM) was -0.173 ± 0.063 and the “selection coefficient … (log2)” value (methotrexate 44 µM) was -0.253 ± 0.084.
